# About 540 (0.36%) of roughly 150,000 compounds showed an effect of 50% or more. Some of the results follow.
# Tested on: Plasmodium falciparum
# Experiment: Primary screen in NF54 nanoGlo assay, in single point, at 2uM, 72h; a lower Z score goes with more inhibition
# Type: functional, Erythrocyte
# Conditions: timepoint 72 hour
Structure (SMILES),% Inhibition [%],Z score
Cc1oncc1NC(=O)Nc1ccc(Cl)c(Cl)c1,3,-0.39
Cc1cc2nc(-c3cccs3)cc(C(=O)NC3CC(C)(C)N(C)C(C)(C)C3)c2cc1C,-2,0.2
Cc1ccc(Cn2cc([C@H](CC(=O)NCc3ccco3)c3cccc(C#N)c3Cl)c3ccccc32)cc1,-1,0.16
O=C(Nc1ccn2nccc2n1)[C@@H]1CCC=CCCC1,-2,0.39
CCc1nc2ccc(C(=O)N[C@H]3CCN(Cc4ccsc4)C3)cc2s1,2,-0.33
CCn1nc(CC2CCN(C)CC2)nc1-c1ccccc1-n1cncn1,-14,1.28
O=C1CC(c2ccccc2)N(C(=O)[C@@H]2CC[C@H](C(=O)O)C2)CCN1 (stereo not given in full),-9,0.96
CC(C)NC(=O)Cn1cnc2nc(N3CCCCC3)sc2c1=O,-1,0.14
C[C@@]1(c2cccs2)CC(c2cccs2)=Nc2ccccc2N1,-6,0.83
COC(=O)CN1C(=O)N(c2ccc(C)c(F)c2)c2ncccc2S1(=O)=O,-15,1.5
COCc1nn2c(C(F)(F)F)cc(-c3cccnc3)nc2c1-c1ccc(OC)c(OC)c1,-8,0.78
Cc1ccc(S(=O)(=O)c2ccc(C(=O)N3CCN(c4cccc(Cl)c4)CC3)s2)cc1,-20,1.82
COCC[C@](C)(O)CNc1ccc2nnc(-c3ccsc3)n2n1,-5,0.76
CCn1nc(C(=O)NC2CCCC2)cc1-c1ccc2c(c1)OCO2,6,-0.81
Nc1ncc(Cl)cc1S(N)(=O)=O,-12,1.41
CN(C)CCn1cc(Br)cn1,-1,0.12
O=C(NCc1cn(-c2ccsc2)nn1)NC1CCOCC1,2,-0.35
Cc1ccc(F)c(-c2cc(NC(=O)[C@H](C)n3cncn3)[nH]n2)c1,-14,1.94
CC1COCC(C)N1C(=O)c1cccnc1OCc1ccccc1F (stereo not given),-2,0.32
CNC(=O)CCN(C)C(=O)c1c(C)cccc1OC,-14,2.69
CCOCCNC(=O)[C@@H]1CN(Cc2nc3ccccc3c(=O)[nH]2)CCO1,-11,1.16
CC(C)[C@H](NC(=O)CCc1ccno1)c1ncnn1C,-12,1.65

Structure (SMILES),% Inhibition [%],Z score
Cc1nn(-c2ncc(C(F)(F)F)cc2Cl)c(=O)n1-c1cccc(F)c1,33,-4.32
CCCC(=O)Nc1cccc(NC(=O)N2CCN(c3ncc[nH]c3=O)CC2)c1,4,-0.49
Cc1sc(N2C(=O)C3CCCCC3C2=O)nc1-c1ccccc1 (stereo not given),-3,0.53
N#Cc1cccc(CN[C@@H](CCO)C(F)F)c1,2,-0.32
CCn1cc(NC(=O)N2CCc3[nH]nc(C(=O)OC)c3C2)c(C)n1,-11,1.65
CC(=O)Oc1c(-c2ccc(NC(=O)c3ccc4c(c3)OCO4)cc2)c(C2CC2)nn1-c1cccc(F)c1,2,-0.33
CN(CCNC(=O)N1CCCCCCC1)C1CC1,-8,0.9
Cc1ccc(-c2ccc(=O)n(CCC(=O)NCCN3CCCC[C@@H]3C)n2)cc1,-1,0.09
CCN(CC)c1ccc(-c2ccc3ccccc3n2)cc1,3,-0.49
CCc1[nH]c([C@H]2CC(=O)N(C3CCCC3)C2)nc1-c1ccc(Cl)cc1,-2,0.37
C[C@@H](CC(=O)N1CCC(n2ccnn2)CC1)c1ccc(F)cc1F,-11,1.44
O=C(NCc1ccncc1)c1csc(-c2ccc(OCc3cccc(F)c3)cc2Cl)n1,7,-0.94
CCc1nnc(N2CCC[C@@]3(CCC(=O)N(CCN(C)C)C3)C2)s1,-10,1.3
COc1ccc(OC)c(CN(Cc2nc(-c3ccc(Cl)cc3)no2)C2CC2)c1,-6,0.81
Cc1ccsc1CCC(=O)N1Cc2cccnc2C1,-16,1.86
Cc1cccc(C(=O)N2CCc3[nH]cnc3C2)c1,-19,2.24
CC(C)[C@H](NC(=O)C(F)(F)F)C(=O)Nc1cnn(C(C)C2CC2)c1 (stereo not given in full),-4,0.46
Cn1nc(C(F)(F)F)cc1S(=O)(=O)NCCc1noc2ccccc12,2,-0.28
c1ccc(-c2nccn2-c2nc(-n3ccnc3-c3ccccc3)nc(-n3ccnc3-c3ccccc3)n2)cc1,-38,4.43
COCCS(=O)(=O)Nc1cccc2c1CN(CC(C)C)C2,-7,0.97
Cc1ccc(F)cc1CNCc1ccoc1,-3,0.34
COC(C)(C)c1nc(-c2ccncc2)no1,3,-0.43

Structure (SMILES),% Inhibition [%],Z score
O=c1[nH]nc2n1CCN(S(=O)(=O)c1cc(F)ccc1F)C2,-12,2.12
CC(=O)Nc1ncnc2c1c(-c1ccc(Cl)cc1)nn2C(C)(C)C,-11,1.38
CS(=O)(=O)N[C@H]1CCN(C(=O)c2cc(N3CCCC3=O)ccc2F)C1,2,-0.27
CC(C)CCNC(=O)c1c(O)n2c3c(cccc3c1=O)CCC2,-18,1.58
NC(=O)N1CCN2C(=O)N(CCOc3cccc(F)c3)C(=O)[C@@H]2C1,-1,0.1
CCOc1cncc(CNc2nnc(-c3cn[nH]c3C)s2)c1,-4,0.52
COc1nn(C)cc1C(=O)N(CCn1ccc(C(F)(F)F)n1)C1CCCC1,-11,2.12
N[C@H]1CCCC[C@@H]1NC(=O)N[C@H]1C[C@H](c2ccc(Cl)cc2)C1,14,-1.7
CCCc1cnc(N2CCn3nc(CNC(=O)C4CCC4)cc3C2)nc1,-9,0.88
CCN(CC)CC(=O)Nc1cccc(F)c1,-2,0.3
CC(CCC1CC1)NC(=O)NCC1CCC(O)C1 (stereo not given),-8,1.19
O=C(CCOCC(F)(F)C(F)F)N[C@H]1CCCN(c2ccccc2F)C1=O,-13,2.28
COc1ccc(CN(C)[C@H]2CCN(CC(F)(F)F)C2=O)cc1F,0,-0.04
CC(C)(C)c1cc2c(c(C(C)(C)C)c1)OC1CCCCC1(N1CCCC1)O2 (stereo not given),-7,0.97
Cc1ccc2[nH]c(C(=O)N3CCC[C@H]3c3ccc(CN(C)C)cc3)nc2c1,7,-1.35
Cc1noc([C@H]2CN(C(=O)c3cccn3C)CC23CCOCC3)n1,2,-0.38
Cc1ccsc1S(=O)(=O)NC(=O)[C@H]1CCN(C)C(=O)C1,-9,0.82
O=C(c1ccccc1)N1CCN(Cc2cccnc2)[C@@H]2CS(=O)(=O)C[C@@H]21,-5,0.54
COc1ccc(-c2nn(-c3ccccc3F)cc2CN(C)Cc2nnc(C)o2)cc1,-6,1.12
C=CCn1ccnc1-c1cc(C)c(C)o1,0,-0.02
c1cc(CN2CCC[C@@H]2Cn2cncn2)c2c(c1)OCCO2,-9,1.1
CCC[C@H](NS(C)(=O)=O)c1ccc(F)cc1F,-3,0.42

Structure (SMILES),% Inhibition [%],Z score
CN(CCOC1CCCCO1)C1CCCc2cccnc21 (stereo not given),-3,0.36
CCCn1cc(CN(CC)Cc2ccc3[nH]ccc3c2)cn1,1,-0.23
COc1ccc2c(c1)CN(C(=O)c1ccc(C(F)(F)F)cc1)CC[C@H]1COC(=O)N21,-13,2.01
CC(C)n1ncnc1CNc1cc(C(F)(F)F)nc2c(F)cc(Br)cc12,-10,0.93
C[C@@H]1CN(c2ccnc(C3CC3)n2)C[C@H](C)N1CCO,-2,0.23
CCn1nc(C)cc1C(=O)N1CC[C@@]2(CCCN(CCCc3ccccc3)C2)C1,-17,2.56
CC(C)c1ncsc1C(=O)NC1CCCC1CNS(C)(=O)=O (stereo not given),-6,0.63
Nc1nccnc1C(=O)NCc1ccc(N2CCNC(=O)C2)cc1,-4,0.78
C[C@H]1c2ccsc2CCN1C(=O)CN1CCS(=O)(=O)CC1,-7,0.9
CCCc1cc(C(=O)N(Cc2cccnc2)Cc2ccsc2)[nH]n1,-16,1.7
CC(C)COCC(NC(=O)C(C)NC(=O)c1ccoc1)c1ccco1 (stereo not given),-4,0.79
Cc1cc(C)n(CC(=O)N2c3ccccc3C[C@@H]2C)n1,-6,1.01
CC1CC(=O)Nc2ccccc2N1C(=O)C1CCCOC1 (stereo not given),33,-3.7
CCc1[nH]c2c(CNC(=O)CCn3cnnn3)cc(F)cc2c1C,-14,1.37
CC(C)c1ncc(C(=O)N2CCO[C@@H](Cc3ccccc3Cl)C2)c(=O)[nH]1,-3,0.4
N[C@@H]1c2ccccc2C[C@H]1NS(=O)(=O)N1CCCCC1,-6,1.06
Cc1nc(C(=O)Nc2ccccc2CN2CCCCC2)cs1,-4,0.66
O=C(Cc1c[nH]c2ccccc12)N1CCS(=O)(=O)CC1,-11,2.04
Cc1ccc2oc(-c3nnc(C(=O)NCCCN4CCC[C@H](C)C4)o3)c(C)c2c1,22,-2.54

# Reference: ChEMBL document CHEMBL4888484, “Replenishing the malaria drug discovery pipeline: Screening and hit evaluation of the MMV Hit Generation Library 1 (HGL1) against asexual blood stage Plasmodium falciparum ,using a nano luciferase reporter read-out” (2022)
